The shares of active, inactive and inconclusive entries below differ from those in the screen. No potency is given beside an inconclusive call; the fits are too rough. Activity calls are given as the source filed them. Calls come from the whole dose curve; as a rule, active = well fitted inhibition curve with a large enough effect; inconclusive = small, poorly fitted or top-dose-only effect; inactive = no such curve, though single readings can be large or run the other way.
Target: Retinal dehydrogenase 2 (Homo sapiens) (UniProt O94788)
Test: qHTS for Inhibitors of the Aldehyde Dehydrogenase Family (ALDH1A2) Confirmation screens (AID 2061314); note: nearly all actives have a fitted effect of over 65% in size
Conditions: activity, negative = inhibition: at 45.9 µM (top of the series) unless noted
Potency is the fitted concentration of half-maximal effect; tags give direction and shape of the fitted curve.

SMILES	Potency
COc1ccccc1C(=O)Nc1cc(-c2cccc(Br)c2)nn1-c1ccccc1	inactive
O=C(CC1N=C2c3ccccc3N=C(SCc3ccc(F)cc3)N2C1=O)NCCc1ccccc1 (configuration not stated)	inconclusive [inhibitor, partial curve, poor fit]
COc1ccc(-c2noc(CSc3nnc(Cc4ccccc4)n3-c3ccccc3)n2)cc1OC	inconclusive [inhibitor, partial curve, poor fit]
Cc1cccc(-c2noc(-c3ccccc3OCC(=O)Nc3ccc([N+](=O)[O-])cc3)n2)c1	inconclusive [inhibitor, full curve]
COC(=O)c1ccccc1NC(=O)CCCS(=O)(=O)c1nc(-c2ccccc2OC)cc(C(F)(F)F)n1	inactive
COc1ccc(S(=O)(=O)N2CCOC[C@H](Oc3ccc(C(F)(F)F)cc3)C2)cc1	inactive
Cc1ccc2cccc(NC(=O)COc3ccccc3[N+](=O)[O-])c2n1	inactive
COC(=O)c1cc(C)nc2c1c(=O)nc(SCc1cccc(C)c1)n2C1CC1	inactive
COc1ccc(OC)c(CNC(=O)C2CCCCN2S(=O)(=O)c2ccc(F)cc2)c1 (configuration not stated)	inactive
COc1ccc(S(=O)(=O)NCC(c2ccc(N(C)C)cc2)N2CCOCC2)cc1 (configuration not stated)	inactive
CCOc1cc(C#N)c(NC(=O)c2cccc(S(=O)(=O)N3CCOCC3)c2)cc1OCC	inconclusive [inhibitor, full curve]
COc1ccc(CN2CC(O)CN([S+](=O)([O-])c3ccc(F)cc3)CC2=O)cc1 (configuration not stated)	inactive

Source: PubChem BioAssay (NCATS)
